# In paper PMC4336329 (PLoS ONE, 2015):
# Screen size: about 310,000 compounds; about 2,200 (0.71%) showed an effect of 50% or more. Effects have a minus sign here. The list shows a part of the results.
# Target: human ether-à-go-go-related gene (hERG) potassium channel (human, UniProt Q12809)
# Assay: primary screen, population patch clamp on CHO cells stably expressing hERG
# Sequence of human ether-à-go-go-related gene (hERG) potassium channel (Q12809 whole entry, looked up): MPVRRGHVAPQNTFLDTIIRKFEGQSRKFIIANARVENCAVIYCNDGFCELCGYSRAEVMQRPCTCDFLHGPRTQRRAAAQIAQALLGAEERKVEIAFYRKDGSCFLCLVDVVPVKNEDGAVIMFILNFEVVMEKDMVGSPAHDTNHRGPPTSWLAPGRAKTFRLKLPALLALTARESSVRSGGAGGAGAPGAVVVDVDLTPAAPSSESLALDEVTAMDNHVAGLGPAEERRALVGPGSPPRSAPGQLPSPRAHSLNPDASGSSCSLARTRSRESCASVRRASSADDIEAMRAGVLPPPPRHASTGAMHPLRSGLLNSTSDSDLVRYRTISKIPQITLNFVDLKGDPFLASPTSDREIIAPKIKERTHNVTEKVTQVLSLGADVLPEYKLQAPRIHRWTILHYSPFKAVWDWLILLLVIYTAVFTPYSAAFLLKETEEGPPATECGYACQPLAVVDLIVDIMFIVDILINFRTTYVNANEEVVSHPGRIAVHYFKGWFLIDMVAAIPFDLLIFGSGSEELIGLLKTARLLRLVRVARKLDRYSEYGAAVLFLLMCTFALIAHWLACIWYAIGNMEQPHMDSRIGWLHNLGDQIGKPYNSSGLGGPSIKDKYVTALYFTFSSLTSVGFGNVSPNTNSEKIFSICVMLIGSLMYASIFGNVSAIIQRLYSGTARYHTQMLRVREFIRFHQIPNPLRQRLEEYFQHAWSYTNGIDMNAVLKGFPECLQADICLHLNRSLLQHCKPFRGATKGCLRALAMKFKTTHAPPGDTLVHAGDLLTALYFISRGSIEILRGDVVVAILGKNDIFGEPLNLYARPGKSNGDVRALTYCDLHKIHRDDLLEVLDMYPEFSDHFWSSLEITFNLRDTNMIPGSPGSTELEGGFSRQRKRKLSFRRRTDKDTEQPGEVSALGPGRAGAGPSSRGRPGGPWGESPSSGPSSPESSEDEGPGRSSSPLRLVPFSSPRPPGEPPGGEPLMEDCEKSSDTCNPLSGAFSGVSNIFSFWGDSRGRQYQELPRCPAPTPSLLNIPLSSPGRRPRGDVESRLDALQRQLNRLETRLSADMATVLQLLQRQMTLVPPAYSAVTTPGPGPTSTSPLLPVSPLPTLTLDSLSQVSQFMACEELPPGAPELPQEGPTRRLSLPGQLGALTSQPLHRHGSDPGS
row,SMILES,"hERG current change (%, negative = inhibition) at 1uM"
1,COc1ccc(/C=N/Nc2cc(N3CCOCC3)ncn2)c(OC)c1,7.91%
2,O=C(Cc1csc(NC(=O)Nc2ccc(Cl)cc2)n1)NC1CCCC1,10.9%
3,c1nc(NC2CCCCCC2)c2[nH]cnc2n1,29.3%
4,COc1cccc(OCC(=O)N2CCN(C)CC2)c1,3.18%
5,Cc1cc(C(=O)N2CCC(C)CC2)on1,8.43%
6,c1ccc(CCn2nnc3ccccc32)cc1,2.45%
7,CCOc1ccc(C(=O)COC(=O)CNC(=O)C2CCCCC2)cc1,7.16%
8,COc1cc(C(=O)NNC(=O)c2cc(-c3ccccc3)n[nH]2)cc(OC)c1C,11.6%
9,COc1ccc(N2C(=O)CC(SC(C)C)C2=O)cc1 (stereo not shown),5.07%
10,Cc1ccc2c(c1)N(C(=O)CCC(=O)NCCCN1CCN(C)CC1)CC(C)O2 (stereo not shown),8.82%
11,CCCNc1c(N)n(-c2ccccc2)c(=O)[nH]c1=O,10.2%
12,O=C(NCc1ccccc1)c1ccc(C(=O)N(C2CCCCC2)C2CCCCC2)cc1,-4.29%
13,CCn1c(=O)c(C(=O)CN2CC(C)OC(C)C2)c(N)n(Cc2ccccc2)c1=O (stereo not shown),-13.1%
14,CC(C)N(C(=S)Nc1cccc(S(=O)(=O)N(C)C)c1)c1ccccc1,10.1%
15,NNC(=O)COc1ccc(-c2nccc(-c3ccc(F)cc3)n2)cc1,11.2%
16,C/C=C\C=C\C(=O)N1CC2(CC(c3cccc(NC(=O)COc4ccc(Cl)cc4)c3)=NO2)C[C@H]1C(N)=O (stereo partly shown),-23.9%
17,CCOC(=O)c1nc(Nc2cc(Cl)ccc2OC)c2ccccc2n1,9.12%
18,COCCN(C(=O)COC(=O)/C=C/c1ccco1)c1c(N)n(Cc2ccccc2)c(=O)[nH]c1=O,11.5%
19,CCc1cc(C(=O)N(Cc2ccccc2)c2c(N)n(CCOC)c(=O)[nH]c2=O)sc1C,3.53%
20,CSCCC(NC(=O)COc1ccccc1)C(=O)N(C)Cc1ccc(F)cc1 (stereo not shown),3.61%

row,SMILES,"hERG current change (%, negative = inhibition) at 1uM"
1,O=C(Nc1cccn2ncnc12)C(F)(F)F,11.8%
2,CCOc1ccc(-n2c(SCC(=O)NC(C)CC)nc3n[nH]c(C)c3c2=N)cc1 (stereo not shown),14%
3,Cn1c(SCc2ccccc2)nc2ccsc2c1=O,11.6%
4,O=C(N/N=C/c1ccc(O)cc1)c1cncc(Br)c1,10.4%
5,CC(C)C(C(=O)Nc1ccc2c(c1)OCO2)N1C(=O)c2ccccc2C1=O (stereo not shown),8.07%
6,CCc1nnc(NC(=O)CSc2ccc(-c3ccco3)nn2)s1,19.4%
7,CC1CCC2(CC1)NC(=O)N(CC(=O)Nc1sc3c(c1C(N)=O)CCC3)C2=O (stereo not shown),5.2%
8,CS(=O)(=O)c1ccc2nc(NC(=O)CN3CCCCCC3)sc2c1.O=C(O)C(=O)O,11.9%
9,COc1ccc(COC(=O)C2=C(C)NC(=O)NC2c2ccc(O)cc2)cc1 (stereo not shown),-4.72%
10,Cc1ccc(N2CCCC2=O)cc1S(=O)(=O)N1CCOCC1,9.48%
11,CCOc1ccc(NC(=O)CN(Cc2ccccc2)S(C)(=O)=O)cc1,7%
12,COc1ccc(-n2c(Cc3cccn3C)nnc2SCC(=O)Nc2nc(C)cs2)cc1,2.34%
13,CC(C)N(CCNC(=O)c1oc(=O)c2ccccc2c1-c1ccccc1)Cc1ccco1,-32.5%
14,CCCc1nnc(SCC(=O)Nc2nc(C)cs2)n1CCOC,16.2%
15,O=C(NCCN1CCOCC1)c1ccccc1[N+](=O)[O-],5.4%
16,Fc1ccccc1-n1cc(-c2ccccc2)[nH]c1=S,10.2%
17,COc1ccc(S(=O)(=O)NCCCCCC(=O)O)cc1C(=O)O,10.9%
18,CC1(C)C2([N+](=O)[O-])CN3CC1([N+](=O)[O-])CN(C2)C31CCCC1,-1.67%
19,CC(C)(C)c1ccc(C(=O)Nc2ccc(C(=O)N3CCCC3)cc2)cc1,0.261%
20,Clc1ccc(C#Cc2cccnc2)cc1,13.7%

row,SMILES,"hERG current change (%, negative = inhibition) at 1uM"
1,Oc1ccccc1-c1cc(C(F)(F)C(F)F)[nH]n1,4.8%
2,Cc1c(OCC(=O)NC2CC(C)(C)NC(C)(C)C2)ccc2c3c(c(=O)oc12)CCC3,17.6%
3,COc1ccc(C2(NC(C)=O)CCN(C(=O)CCC(=O)O)CC2)cc1,12.6%
4,COc1ccc(C(=O)N/N=C/c2ccc(OC)c(COc3ccc(F)cc3F)c2)cc1,12.3%
5,COCc1nnc(NS(=O)(=O)c2ccc(Br)cc2)s1,9.94%
6,CCOc1ccc(NC(=S)N(CCc2ccncc2)C(C)C)cc1,-31.5%
7,Cn1c(Cc2ccccc2)nnc1SCC(=O)NC1CC1,18.2%
8,Cc1ccc(C(=O)OCC(=O)c2c(N)n(C)c(=O)n(C)c2=O)cc1S(=O)(=O)N1CCOCC1,-4.26%
9,CCC(=O)c1c(OCc2ccccc2)ccc2c(C)cc(=O)oc12,9.69%
10,C[C@H](NC(=O)c1nc[nH]c1C(=O)N[C@@H](C)c1ccccc1)c1ccccc1,11.7%
11,CCn1c(COc2ccccc2C)nc2ccccc21,4.87%
12,CCc1ccccc1NC(=O)c1cc(-c2ccc3c(c2)OCO3)on1,5.83%
13,Cc1nn(C)cc1CN(C)C(=O)c1cc(COc2ccc(F)cc2F)on1,10.8%
14,c1ccc(Nc2ccc(-n3ccnc3)nn2)cc1,7.53%
15,COc1ccccc1C(=O)NCC(=O)OC(C)C(=O)N1CCOCC1 (stereo not shown),18.9%
16,Cn1c(O)c(N=NC(=O)CNC(=O)/C=C/c2ccccc2)c2ccccc21,3.74%
17,C=CCc1ccc(OCCOCCN(C)C)c(OC)c1.O=C(O)C(=O)O,-10.3%
18,COC(=O)[C@H](C(C)C)n1c(C)c(C(C)=O)c(C(C)=O)c1C,8.5%
